# Among all 43,000 compounds or so, about 200 (0.47%) were called active. About 12% were inconclusive and are not listed. The call rests on the fitted dose curve; in most records, active means well fitted cell-killing curve with a large enough effect; inconclusive means small, poorly fitted or top-dose-only effect, or effect the other way; inactive means flat fitted curve, though single readings scatter. The list shows a part of the results.
# Assay: Cell viability qHTS assay in S16 Pmp22-F2sN cells; further: nearly all actives have a fitted effect of over 65% in size
# Conditions: S16 Pmp22-F2sN Schwann cells viability, CellTiter-Glo, 24 h; series mostly up to 57.5 µM; activity change, negative = cytotoxicity: at the top concentration
# Procedure, shortened: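 Used to flag compounds lowering reporter output through toxicity, this quantitative HTS measures ATP-based CellTiter-Glo luminescence in S16 Pmp22-F2sN Schwann cells after 24 h compound exposure at 37C.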
# On the % scale 0 is the no-effect control and ±100 the full control effect.
row,Compound,"activity change, negative = cytotoxicity"
1,COc1ccc(CNC(=O)c2cnc3sc(N4CCOCC4)nn3c2=O)cc1,inactive: 1.51%
2,O=C(CSC1=Nc2ccccc2C2=NC(CCC(=O)NC3CCCCC3)C(=O)N12)Nc1cccc(C(F)(F)F)c1 (centres undefined),inactive: -29.1%
3,CCOc1ccc(NC(=O)C(CC)n2c(=O)c(-c3ccccc3NC(C)=O)nc3ccccc32)cc1 (centres undefined),inactive: -8.27%
4,Cc1ccc(CNC(=O)Cn2cc(S(=O)(=O)Cc3ccccc3Cl)c3ccccc32)cc1,inactive: -1.18%
5,Nc1nnc(SCC(=O)Nc2ccc(Cl)cc2)s1,inactive: -13.9%
6,CCOc1ccc(NC(=O)C2CCN(C(=O)N3CC(C)Oc4ccc(Cl)cc43)CC2)cc1 (centres undefined),inactive: -11.7%
7,CCCn1c(CN2CCN(c3ccc(OC)cc3)CC2)nc2c1c(=O)[nH]c(=O)n2C,inactive: 2.1%
8,COc1cc(-c2cc3n(C)c(C)c(CCC(=O)O)c(=O)n3n2)cc(OC)c1OC,inactive: 10.4%
9,Cc1cc2oc(C(=O)Nc3ccc(S(=O)(=O)N(C)Cc4ccccc4)cc3)cc(=O)c2cc1C,inactive: 0.279%
10,CC(C)CC(=O)Nc1nnc(S(=O)(=O)N(CC(C)C)c2ccccc2)s1,inactive: -2.88%
11,Cc1ccc(CNC(=O)CCC(=O)N2CC3CCCN3c3ccccc32)cc1 (centres undefined),inactive: -1.53%
12,Cc1cc(C)cc(-n2c(C)nc3cc(C(=O)O)ccc32)c1,inactive: 9.42%
13,CCOc1ccc(C2=CC(c3cccc(Br)c3)n3c(nc4ccccc43)N2)cc1Cl (centres undefined),inactive: -19.8%
14,COc1ccc(-c2noc(-c3ccc(NCc4cccnc4)c([N+](=O)[O-])c3)n2)cc1OC,inactive: -10.6%
15,Cc1cc(C)c(S(=O)(=O)NCCc2cc3ccc(C)c(C)c3[nH]c2=O)c(C)c1,inactive: -1.72%
16,O=c1c2sc3ccccc3c2n(Cc2cccc(Cl)c2)c(=O)n1Cc1ccco1,inactive: 18.5%
17,Cc1cccc(OCc2nc(CC(=O)Nc3ccc(C)c(C)c3)cs2)c1,inactive: 4.55%
18,COc1ccc(OCc2ccc(-c3nc(C#N)c(N4CCCCC4)o3)o2)cc1,inactive: -18.9%
19,CCc1ccccc1NC(=O)Cn1c(=O)ccc2cc(S(=O)(=O)N3CCCC3)ccc21,inactive: 5.65%
20,CCCSc1ncc(Cl)c(C(=O)N(Cc2ccc(Cl)cc2)Cc2ccco2)n1,inactive: -16.6%
21,CCOC(=O)N1CCc2c(sc3c2c(=O)n(-c2ccc(CC)cc2)c(=O)n3C)C1,inactive: 5.04%
22,CCC1CCCCN1S(=O)(=O)c1cc2c3c(c1)CC(=O)N3CCC2 (centres undefined),inactive: -19.9%
23,CCOC(=O)c1c(C)[nH]c(C)c1S(=O)(=O)N1CCC(C(=O)NCc2cccc(OC)c2)CC1,inactive: 28.4%
24,COc1ccc(S(=O)(=O)N2Cc3ccccc3CC2C(=O)Nc2ccc(C)cc2C)cc1OC (centres undefined),inactive: -16.4%

row,Compound,"activity change, negative = cytotoxicity"
1,CCC(C(=O)O)n1ccc2cc(S(=O)(=O)N3CCCCC3)ccc21 (centres undefined),inactive: -9.12%
2,COc1ccc(C(=O)c2c(N)c(C(=O)Nc3cccc(OC)c3)c3ccccn23)cc1,inactive: -27.3%
3,Cc1c(C(=O)N(C)C)sc2c1c(=O)n(-c1ccc(Cl)cc1)c(=O)n2CC(=O)C(C)(C)C,inactive: 3.57%
4,Cc1ccc(NC(=O)Cn2nc(N3CCN(c4ccccc4)CC3)ccc2=O)cc1F,inactive: 0.254%
5,COc1ccc(-n2c(=O)c3sc4ccccc4c3n(Cc3ccccc3C)c2=O)cc1OC,inactive: -10.8%
6,CCC1=C(c2ccc(C)cc2)S(=O)(=O)N=C1N1CCC(C(=O)NCc2ccc(N(C)C)cc2)CC1,inactive: -13.3%
7,CCN1C(=O)c2ccccc2Sc2ccc(NC(=O)Nc3cccc([N+](=O)[O-])c3C)cc21,inactive: -40.1%
8,Cc1ccc(N2CC(NC(=O)c3cccc(Cl)c3)CC2=O)cc1C (centres undefined),inactive: 9.73%
9,CCOC(=O)c1c(C)oc2ncnc(Nc3cc(C)cc(C)c3)c12,inactive: 6.66%
10,O=C(NCCc1csc2nc(-c3ccccc3F)nn12)C(=O)Nc1cc(F)ccc1F,inactive: -2.31%
11,CCc1ccccc1Nc1sc(C(=O)c2cccc(OC)c2)c(N)c1S(=O)(=O)c1ccccc1,inactive: 6.18%
12,CC1CCCN(C(=O)Cn2ncc3c([nH]c4ccccc43)c2=O)C1 (centres undefined),inactive: 26.7%
13,CCCCOc1ccc(C(=O)NCc2nnnn2-c2ccc(C)c(C)c2)cc1,inactive: 0.92%
14,COC(=O)c1c(NC(=O)/C(C#N)=C/c2ccccc2)sc2c1C(C(=O)OC)CC2 (centres undefined),inactive: 1.11%
15,Cc1cccc(N2CCN(C(=O)c3cnc(N4CCCC4)nc3C)CC2)c1C,inactive: -0.0488%
16,COc1ccc(C2c3c(n(C)c4ccccc34)C(=O)N2CC(=O)Nc2cccc(Cl)c2C)cc1 (centres undefined),inactive: -6.1%
17,COc1cc(NC(=O)c2nnn(CC(=O)Nc3cc(C)ccc3C)c2N)cc(OC)c1,inactive: -3.43%
18,COc1cc(NC(=O)c2cc(-c3cccc(OC)c3)n[nH]2)cc(OC)c1,inactive: -2.72%
19,CCOc1cc(C(=O)Nc2ccc3c(c2)n(C)c(=O)c(=O)n3C)cc(OCC)c1OCC,inactive: 6.86%
20,CCOc1ccc(-n2c(SCC(=O)Nc3ccc(CC)cc3)nc3c(oc4ccccc43)c2=O)cc1,inactive: 4.64%
21,CCOC(=O)CCc1c(C)nc2cc(-c3cc(OC)cc(OC)c3)[nH]n2c1=O,inactive: 7.19%
22,O=C(Nc1ccc(OC(F)(F)F)cc1)c1noc2c1CCCC2,inactive: 4.62%
23,CC1CCc2c(sc(NC(=O)CCCOc3ccccc3)c2C(N)=O)C1 (centres undefined),inactive: 6.32%
24,Cc1nc2ccc(S(=O)(=O)N(CC(=O)Nc3ccc(F)cc3)Cc3ccccc3)cc2s1,inactive: -8.49%

row,Compound,"activity change, negative = cytotoxicity"
1,COC(=O)c1sc2cccc(F)c2c1S(=O)(=O)N1CCN(c2cccc(C)c2)C(C)C1 (centres undefined),inactive: 1.33%
2,COc1ccc(-c2cn3c(C)c(C(=O)Nc4cc(C)cc(C)c4)sc3n2)cc1,inactive: 0.627%
3,CCOC(=O)c1cnc2c(Cl)cc(Cl)cc2c1Nc1ccccc1OC,inactive: -0.993%
4,COC(=O)c1ccc(Cn2nnc3c(=O)[nH]c(C4CCCN(S(=O)(=O)c5ccccc5Cl)C4)nc32)cc1 (centres undefined),inactive: -0.846%
5,Cc1ccc(-c2nnc3c4ccccc4c(C)nn23)cc1NC(=O)c1ccccc1,inactive: 2.64%
6,CCc1cccc(NC(=O)CN(C)S(=O)(=O)c2ccc3[nH]c4c(c3c2)CCCC4)c1,inactive: -14.5%
7,CCc1ccccc1-n1c(N)c(C(=O)OC)c2nc3ccccc3nc21,inactive: -7.7%
8,CC(C)(C)OC(=O)N1CCC(c2c(C(=O)N3CCN(C(=O)c4ccco4)CC3)cnn2-c2ccc(F)cc2F)CC1,inactive: -17.1%
9,CCCOC(=O)c1c(NC(=O)c2cc3ccccc3c(=O)o2)sc2c1CCC(C)C2 (centres undefined),inactive: -0.435%
10,Cc1ccc(N2CC(NC(=O)c3ccc(Br)o3)CC2=O)cc1C (centres undefined),inactive: 3.68%
11,Cc1nn(CCC(=O)NCc2ccc(N(C)C)cc2)c(=O)c2nn(-c3ccccc3)c(C)c12,inactive: 4.62%
12,CC(NC(=O)C(=O)Nc1c2c(nn1-c1ccccc1)CSC2)c1ccccc1 (centres undefined),inactive: 0.987%
13,Cc1ccc2c(c1)c(=O)c(C(=O)c1ccncc1)cn2CC(=O)Nc1ccc(C(C)C)cc1,inactive: 17.6%
14,CCc1nnc(NC(=O)CSc2nccn2Cc2ccc(F)cc2)s1,inactive: 7.3%
15,COc1ccc2nc3oc(C(=O)N(C)c4ccc(Cl)cc4)cc3cc2c1,inactive: -0.916%
16,COc1ccc(N2CCN(CC(O)COc3ccc(C(C)C)c(C)c3)CC2)cc1 (centres undefined),inactive: -19.7%
17,Cc1nnc(N2CCN(c3ccccc3F)CC2)c2c1nnn2Cc1ccccc1Cl,inactive: -19.2%
18,CC(C)(C)c1ccc(C(=O)Nc2ccc(-c3nc4cc(Cl)ccc4o3)cc2)cc1,inactive: -0.455%
19,CCCN1C(=O)CN(C2CCCCC2)C(=O)C1c1ccc(OC)c(OC)c1 (centres undefined),inactive: 12.9%
20,COc1ccc(NC(=O)Cn2c(=O)n(CCC(=O)NCCc3ccc(OC)c(OC)c3)c(=O)c3ccccc32)cc1Cl,inactive: -4.03%
21,COC(=O)c1c(NC(=O)c2nc(SCc3ccc(C)cc3)ncc2Cl)sc2c1CCCC2,inactive: 0.929%
22,Cc1ccc2c(=O)cc(C(=O)Nc3ccc(S(=O)(=O)Nc4onc(C)c4C)cc3)oc2c1,inactive: -6.45%
23,COc1cccc([C@@H]2Nc3ccc(C(=O)O)cc3[C@@H]3C=CC[C@@H]32)c1OC,inactive: -6.71%
24,Cc1cccc(-n2ncc(C(=O)N3CCN(C(=O)c4ccco4)CC3)c2C2CCN(C(=O)OC(C)(C)C)CC2)c1,inactive: -3.08%

row,Compound,"activity change, negative = cytotoxicity"
1,COc1cccc(CNC(=O)Cn2c(SCC(=O)Nc3ccc(F)cc3)nc3ccccc32)c1,inactive: -7.9%
2,Cc1cccc(CS(=O)(=O)Cc2ccc(C(=O)NC(C)c3ccccc3)o2)c1 (centres undefined),inactive: -13.4%
3,Cc1ccc2c(c1)-c1c(c(C(=O)NCCc3ccccc3)nn1C)CS2,inactive: -8.33%
4,CCCN(C(=O)Cc1c(C(=O)O)[nH]c2ccc(Cl)cc12)c1ccc(OCC)cc1,inactive: 5.35%
5,CC(C)CCNC(=O)c1cccc(-n2cnc3cccnc32)c1,inactive: -1.64%
6,Cc1ccc(C)c(N2CCN(S(=O)(=O)c3ccc4c(c3)CC(=O)N4C)CC2)c1,inactive: 4.06%
7,Cc1ccc(C(=O)COC(=O)c2cccc(NC(=O)c3ccc(Br)cc3)c2)cc1,inactive: -1.1%
8,Cc1ccc(S(=O)(=O)NCC(c2ccco2)N2CCN(c3ccccc3F)CC2)cc1 (centres undefined),inactive: -1.33%
9,Cc1cccc(N(CC(=O)Nc2cccc(Cl)c2C)S(C)(=O)=O)c1C,inactive: -3.7%
10,CCOCCCNC(=O)c1[nH]c2cc(OC)ccc2c1Sc1ccccc1,inactive: 3.14%
11,COc1ccc(CCC(=O)NCc2nc3cccnc3n2Cc2ccc(C)cc2)cc1,inactive: 4.21%
12,O=C(NC1CC(=O)N(c2ccc(F)cc2)C1)C1CCCCC1 (centres undefined),inactive: 5.27%
13,CCOc1cc(/C=C(\C#N)C(=O)Nc2ccccc2C)ccc1OCc1cc(=O)n2nc(CC)sc2n1,inactive: 0.271%
14,COc1ccccc1C(=O)Nc1ccccc1SCc1cc(=O)c2ccccc2[nH]1,inactive: -11.2%
15,CCN(CC)C(=O)Cn1c(=O)n(CCCCCC(=O)NCc2ccccc2)c(=O)c2sccc21,inactive: -19.4%
16,O=C(c1ccc2c(c1)N(Cc1ccccc1F)C(=O)c1ccccc1S2=O)N1CCCCC1 (centres undefined),inactive: 8.07%
17,COc1ccc(-c2nc(C)c(CCNC(=O)c3cc(OC)c(OC)c(OC)c3)s2)cc1OC,inactive: 7.33%
18,O=C(NCc1ccccc1)c1cc2ccccc2o1,inactive: 1.16%
19,CCOc1ccc(-c2csc(-c3nc(-c4ccc(Br)s4)cs3)n2)cc1,inactive: 6.99%
20,Cc1ccc(NC(=O)C2CCN(c3nnc(-n4cccc4)s3)CC2)cc1Cl,inactive: 3.85%
21,Cc1nnc(SCC(=O)NCc2ccc(N(C)C)cc2)c2nn(-c3ccccc3)c(C)c12,inactive: 2.73%
22,COc1cccc(C(c2c(O)cc(C)n(Cc3ccco3)c2=O)N2CCC(C)CC2)c1 (centres undefined),inactive: 0.969%

# — PubChem BioAssay AID1508642 (National Center for Advancing Translational Sciences (NCATS), 2021)
